Assay results reported in ChEMBL document CHEMBL4888484, “Replenishing the malaria drug discovery pipeline: Screening and hit evaluation of the MMV Hit Generation Library 1 (HGL1) against asexual blood stage Plasmodium falciparum ,using a nano luciferase reporter read-out” (2022).
Among all 150,000 compounds or so, about 540 (0.36%) showed an effect of 50% or more. The list shows a part of the results.

system: Plasmodium falciparum; test: Primary screen in NF54 nanoGlo assay, in single point, at 2uM, 72h; a lower Z score goes with more inhibition; format: functional, Erythrocyte; conditions: timepoint 72 hour

SMILES | % Inhibition [%] | Z score
Cc1noc(C)c1C(=O)N1CCc2cc(Br)ccc21 | 12 | -2.07
CCOc1ccc(NS(=O)(=O)c2ccc3c(c2)OCCCO3)cc1S(=O)(=O)N1CCCCC1 | -5 | 0.85
Cc1nc(CC(=O)N[C@@H](C)c2ccccc2)sc1C(=O)NCC(C)C | -3 | 0.38
Fc1cccc(-c2noc(C3(c4ccc(Cl)cc4)CCOCC3)n2)c1 | -1 | 0.26
Cn1ncc2c(=O)[nH]c(CN3CCO[C@@H](CCCc4ccccc4)C3)nc21 | -1 | 0.11
Cc1n[nH]c(C)c1[C@H](C)NC(=O)c1cccn1C(C)C | -17 | 1.81
O=C(NCc1ccco1)C(=Cc1ccc(Cl)c(Cl)c1)C(=O)NCc1ccco1 | -3 | 0.44
Cc1nc(N2CCC[C@H](NCc3ccc(F)cc3F)CC2)nc2ccc(F)cc12 | 10 | -1.38
O=C(Nc1cnc(-n2ccnc2)nc1)c1ccc(F)cc1 | -18 | 2.84
O=C(c1cc2nc(-c3ccco3)cc(C(F)(F)Cl)n2n1)N1CCCc2ccccc21 | -13 | 1.66
Cc1ccc(-c2ccnn2C)cc1NC(=O)NCc1ccccn1 | -11 | 1.06
CCN(CC)S(=O)(=O)NCc1ccnc(OC)c1 | -7 | 1.32
C[C@@H](c1cccnc1)N(CC1CCOCC1)S(=O)(=O)c1cncc(Cl)c1 | 9 | -0.88
CC(C)Cc1cc(C(=O)NCCc2nnc3ccccn23)cc(O)n1 | -26 | 3.27
Cc1c[nH]c(C(=O)N2CC[C@@]3(CCCN(CCCc4ccccc4)C3)C2)n1 | -10 | 1.61
O=C(NCc1cncc(C2CC2)c1)c1ccncc1F | -8 | 0.92
CC(C)(C)N1CC2(O)OCCC2(C)C1=O (centres undefined) | 29 | -3.27
C[C@H]1CNC(=O)CCN1C(=O)c1cc(Cn2cnc3ccccc32)[nH]n1 | -13 | 1.44
Cn1c(C(=O)N2CCC3(CC2)C[C@H](O)c2ccccc2O3)c[nH]c1=O | -11 | 2.06
COc1ncccc1-c1cc(C)ccc1N1CCOC1=O | -18 | 2.26
C=CCN(CC(F)(F)F)C(=O)c1ccnc(C(=O)O)c1 | -18 | 2.15

SMILES | % Inhibition [%] | Z score
Cc1nc(C2CCCC2)n(C[C@H]2COCCO2)n1 | -7 | 1.37
CC(C)CCN(C(=O)[C@H]1CCN(C)C(=O)C1)C1CC1 | -20 | 3.18
CCN1CCC[C@@H]1CNC(=O)c1cccc(-c2nc(C)cc(NC)n2)c1 | 10 | -1.31
NC(=O)CCn1cc(/C=C/C2CCCCC2)cn1 | -6 | 1.16
CCOc1ncccc1C(=O)N(C)[C@H]1CCCN(C(=O)c2cnnn2CC)C1 | -10 | 1.52
CCc1nc(CN(C)Cc2cnc(N(C)C)s2)no1 | -5 | 0.75
COc1ccc2[nH]c([C@H]3CCN(Cc4ccccn4)C3)nc2c1 | 16 | -1.91
Cc1cnc(CN2C[C@]3(CCCN(C(=O)c4ccon4)C3)CCC2=O)cn1 | -6 | 1.02
O=C(Nc1cccc(NC(=O)c2cccnc2)n1)c1cccnc1 | 30 | -3.84
Cc1oc2ncn(C)c(=O)c2c1C(=O)N1CCN(c2ccccc2)CC1 | -8 | 1.55
COc1cccc(-c2nc(S(=O)(=O)c3ccc4c(c3)OCCO4)c(NCc3cccnc3)o2)c1 | -4 | 0.55
Cc1ccc([C@H](CCO)NC(=O)CCn2nnnc2C)cc1 | -10 | 1.98
COc1ccc(CNC(=O)[C@@H]2OCCN(C)[C@H]2c2ccccc2)c(OC)c1 | -9 | 1.63
Brc1ccc(-c2nc3ccc(Cc4ccc5nc(-c6ccc(Br)cc6)c(-c6ccc(Br)cc6)nc5c4)cc3nc2-c2ccc(Br)cc2)cc1 | -9 | 1.53
O=C(Nc1ccccc1)Nc1nccn(-c2ccc(Br)cc2)c1=O | -2 | 0.3
Cc1nsc(N2CCCC[C@H](N3CCCC3)C2)n1 | -12 | 1.49
Cn1ccc(C(=O)Nc2cc(F)ccc2N2CCCCC2)cc1=O | -12 | 1.55
CCOc1ccc(OCc2nc(CNC(=O)N(C)C)n(C(C)C)n2)cc1 | -6 | 0.86
CC[C@@H](C(=O)Nc1cccc(Cl)c1)n1nc(-c2ccc(OC)cc2)c2c(C)onc2c1=O | -2 | 0.25
COc1ccccc1Cc1n[nH]c([C@H]2CC23CCC3)n1 | -5 | 0.67
CCN1CC(=O)N(c2cc(-c3cccnc3)ccc2C)C1=O | 0 | -0.01

SMILES | % Inhibition [%] | Z score
O=C(O)c1nnn2c1CO[C@H](c1ccccc1)C2 | -4 | 0.45
CCn1ncnc1[C@H](C)NC(=O)Cc1cc(C)no1 | -24 | 2.2
Cc1cnc(CN2C[C@]3(CCCN(S(=O)(=O)C4CC4)C3)CCC2=O)cn1 | -15 | 1.96
CCc1nnc(CNC(=O)N(Cc2ccccc2OC)C2CC2)s1 | 1 | -0.16
COc1ccc(-c2ncc(C(=O)N3CCC(C)CC3)c(N3CCC(Cc4ccccc4)CC3)n2)cc1 | -15 | 1.69
Cc1ccc(N(C)Cc2nc(CC(C)C)no2)c(C)c1 | -6 | 0.59
COc1ccsc1CNc1ccc2[nH]ncc2c1 | 35 | -1.06
Cc1cc(Br)cc(C(=O)NC(C)(C)C(=O)N(C)C)c1 | -6 | 0.66
CC(=O)Nc1c(S(=O)(=O)c2ccc(F)cc2)c(C)c(C)n1CC(C)C | -4 | 0.53
COc1ccc(-c2nn(-c3ccccc3C)cc2CN(C)C[C@H]2COCCO2)cc1F | -7 | 1.33
Cc1nc(C(=O)NCC2CCN(Cc3nnc(C)s3)CC2)cs1 | -10 | 1.27
O=C(Cc1nnc(-c2ccsc2)o1)Nc1ccc(Cl)cc1Cl | -6 | 0.59
Cc1ccc(CCC(=O)Nc2nc(-c3ccc4c(c3)NC(=O)[C@H](C)O4)c(C)s2)cc1 | -7 | 1.14
O=C(N[C@@H]1c2ccccc2C[C@H]1O)c1cccc(-c2cn[nH]c2)c1 | -12 | 2
COc1ccc(C(=O)Nc2ccc(-n3nc(OC)nc3-c3ccc4c(c3)OCO4)cc2)cc1 | -14 | 2.72
CCN1C(=O)CO[C@H](C(=O)Nc2ccc3c(n2)CCCC3=O)[C@H]1c1cnn(C)c1 | 1 | -0.08
COc1ccc(CNC(=O)N2CC[C@H](Oc3nc(C)cc(C)n3)C2)cc1 | -12 | 1.82
Cn1c([C@H]2CCCN(C(=O)NCCN3CCCC3)C2)nc2ccccc21 | -6 | 1.31
O=C(CCn1cnc2cc(S(=O)(=O)N3CCCC3)ccc21)Nc1nc2ccccc2s1 | -10 | 1.25
CC(C)n1cc2c(n1)C[C@@H](NC(=O)c1cc3cccnc3s1)CC2 | -11 | 1.07
Cc1ccc(CCNC(=O)c2ccc(-n3nc(OCc4cccc(F)c4)ccc3=O)cc2)cc1 | -1 | 0.25

SMILES | % Inhibition [%] | Z score
CNC(=O)C1CN(Cc2nc(-c3ccccc3)cs2)C1 | 0 | 0.06
CCc1ccc(C2CC(C(=O)NCc3ccco3)CN(C(=O)c3ccc(F)cc3)C2)cc1 (centres undefined) | -15 | 2.84
CCc1[nH]nc(-c2ccc(C(F)(F)F)cc2)c1NC(=O)C1CCCC1 | 8 | -1.11
Cn1cc([C@@H]2CN(S(=O)(=O)c3ccccc3Cl)Cc3ccccc32)cn1 | 3 | -0.39
OC[C@H]1CN(Cc2ccc3ccccc3c2)C[C@H]1CN1CCCCC1 | 4 | -0.8
CCOc1ccc(NC(=O)Cn2c3cc(Cl)ccc3c(=O)n2C(C)(C)C)cc1 | 6 | -0.91
O=c1[nH]c(=O)n(CCC2OCCO2)cc1Cl | -1 | 0.17
O=S(=O)(c1ccc(-n2cc(-c3cnn(Cc4ccccc4)c3)cn2)nc1)N1CCCCC1 | -14 | 2
CC(C)N1CCN2[C@H](CN(Cc3ccccc3)C[C@@]2(C)CO)C1 | -17 | 2.13
CC(C)N(Cc1ccsc1)C[C@H]1CCC(=O)N1 | -5 | 0.62
O=C(Nc1ccccc1)c1nc[nH]c1/N=C(/NCc1ccccc1)Nc1ccccc1 | 27 | -3.07
CC(C)(C)c1nccn1C1Cc2ccccc2C1 | -16 | 1.45
CCCO[C@H]1CCCN(Cc2ccc(OC)nc2)C1 | 17 | -2.18
COc1ccc([C@H]2OCC[C@@H]2NC(=O)NCc2nc3cc(C)ccc3n2C)cn1 | 11 | -2.03
COc1ccc(S(=O)(=O)N2CC3(CC[C@H](CN4CCCC4)O3)C2)cc1 | -10 | 1.66
Cc1nn(-c2ccccc2)c2ncc(NC(=O)[C@]3(C)CCCO3)cc12 | 7 | -1.3
CCCn1ccnc1CN1CCc2nnc(Cc3cccnc3)n2CC1 | -21 | 2.66
Cc1cc(C(=O)N[C@@H](C)Cc2ccsc2)nc(C)n1 | -8 | 1.38
CC(C)[C@@H](CO)NS(=O)(=O)c1cccc(C(=O)NCc2ccncn2)c1 | -20 | 3.36
